# Results from PubChem BioAssay AID434955 (Southern Research Specialized Biocontainment Screening …, 2010).
# The list shows a part of the results. The main result of the screen is listed elsewhere. These columns were measured beside it and carry no call. Most of these compounds were active or inconclusive in the main read-out, so they are no random draw. Residues, ends and D or L forms follow the SMILES beside them. *: point of attachment. Cbz = O=C(OCc1ccccc1)*
# Experiment: beta-lactam sensitization of Mtb H37Rv, H37Rv (AID 434955);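 also: growth measured after seven days incubation then overnight dye step; 0% = bacteria only wells and 100% = bacteria with antibiotic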
# Details: M. tuberculosis H37Rv growth with meropenem, percent inhibition; measured here: primary screen without meropenem; at 25 µM
row,SMILES,inhibition [%]
1,CCOC(=O)N1CCC(NC(=O)CC2C(=O)NCCN2Cc2ccccc2)CC1 (centres undefined),1.83
2,O=S(=O)(NC(=NCc1ccccc1)c1ccccc1)c1ccc(Br)cc1,9.62
3,CCCC(=O)N(CCN1CCOCC1)c1nc2c(C)cccc2s1,3.59
4,C/C(=N/NC(=O)c1ccccn1)c1ccncc1,39.2
5,Clc1ccc(OCc2nn3c(-c4ccccc4)nnc3s2)c(Cl)c1,3.42
6,O=C1OCc2ccc(NC(=O)c3ccccc3C(=O)O)cc21,-4.04
7,CSc1ncccc1C(=O)NC1CCN(Cc2ccccc2)CC1,-19
8,COc1ccc(C(=O)Nc2nnc(SCC(=O)NCc3ccco3)s2)c(OC)c1,2.15
9,Cc1nc(-c2cccc(NS(=O)(=O)c3cccc4ccccc34)c2)cs1,-4.52
10,COc1cccc(CN2CC(C(=O)NC3CCC(O)CC3)CCC2=O)c1 (centres undefined),-6.8
11,COc1cccc(-c2ccc(NC(=O)C3CCCN(Cc4cc(C)[nH]n4)C3)cc2)c1 (centres undefined),4.82
12,CC(C)(C)c1ccc(C(=O)N2CCN(C(=O)c3ccco3)CC2)cc1,-0.56
13,CCOC(=O)COc1nc(-c2ccc(Cl)cc2)cc(-c2ccco2)c1C#N,-2.24
14,O=C(C1CCC(Cn2c(=S)[nH]c3ccccc3c2=O)CC1)N1CCOCC1 (centres undefined),1.39
15,COc1ccc(-c2nc3c(c(SCC(=O)N4CCOCC4)n2)COC(C)(C)C3)cc1,2.06
16,CCC(CC)c1nnc(NC(=O)c2ccc(S(=O)(=O)N3CCc4ccccc4C3)cc2)s1,0.9
17,O=C(CSc1nnc(COc2ccccc2)o1)N1CCN(c2ccccc2)CC1,42.4
18,Cc1ccc(NC(=O)CCN2C(=O)C3C4CCC(C4)C3C2=O)cc1Cl (centres undefined),79.4
19,Cc1ccc(C(=O)NCC2(c3ccccc3)CCCC2)cc1,34.2
20,CC1(C)Cc2c(cnn2-c2ccc(F)cc2)C(NC(=O)CCN2CCCCO2)C1 (centres undefined),3.25
21,COc1ccccc1-n1c(SCC(=O)Nc2nnc(C)s2)nc2c(c1=O)SCC2,1.06
22,CCc1ccc(-c2cc3c(=O)n(CC(=O)NCCCN4CCN(C)CC4)ncn3n2)cc1,4.12
23,CCC1CCCCN1CCCNC(=O)CN1C(=O)c2cccnc2Oc2ccc(C)cc21 (centres undefined),-7.28
24,COC(=O)CCC(NC(=O)OCc1ccccc1)C(=O)NC(CC(C)C)C(=O)OC (centres undefined) (Cbz-Glu(OMe)-Leu-OMe; configuration not given here),-5.3
25,CCCCOC(=O)C1C2C=CC3(CN(CCc4ccccc4)C(=O)C13)O2 (centres undefined),-14.6
26,CC(C)(C)c1ccc(-c2nc(C#N)c(N3CCC(C(N)=O)CC3)o2)cc1,69

row,SMILES,inhibition [%]
1,Fc1ccc(C2CC(c3ccco3)n3ncnc3N2)cc1 (centres undefined),10.2
2,O=C1CC(c2cccs2)c2cc3c(cc2N1)OCO3 (centres undefined),-8.67
3,CN(C(=O)CC1C(=O)NCCN1Cc1ccc2ccccc2c1)C1CCOCC1 (centres undefined),0.43
4,O=C(NCc1ccc(N2CCCC2=O)cc1)C1CCC(=O)N(Cc2ccccc2F)C1 (centres undefined),-1.21
5,COCC1CCN(C(=O)CCc2nnc(C3(c4ccc(Cl)cc4)CCC3)o2)C1 (centres undefined),7.62
6,O=C(Nc1ccc(N2CCOCC2)cc1)Nc1ccc2nc(-c3ccco3)c(-c3ccco3)nc2c1,2.51
7,CC1CCN(c2ccc(-c3cccc(NC(=O)C(F)(F)F)c3)nn2)CC1,4.01
8,Cc1ccccc1NC(=O)c1cccc2nccnc12,3.09
9,CCOC(=O)C1=C(C)OC(N)=C(C#N)C1c1c(C)nn(-c2ccccc2)c1Cl (centres undefined),-3.55
10,CCOc1ccccc1NC(=O)CCN(c1ccc(C)cc1)S(=O)(=O)c1ccccc1,1.4
11,COC(=O)c1c(NC(=O)Cn2cnc([N+](=O)[O-])n2)sc2c1CCC(C)C2 (centres undefined),8.03
12,COc1ccc(N2CCN(CC(=O)c3ccc(Cl)cc3)CC2)cc1,-6.65
13,COC(=O)c1ccc(/C=N/NC(=O)C(=O)N2CCCCCC2)cc1,2.26
14,O=c1c2cc(N3CCOCC3)ccc2[nH]c(=S)n1CCCN1CCCCC1,11.2
15,O=C(CSc1nnc(CNC(=O)c2cccc(C(F)(F)F)c2)o1)NC1CCCC1,-1.68
16,O=C(N1CCc2[nH]c3ccccc3c2C1)C(F)(F)F,18.2
17,CCOc1ccccc1-c1nn2c(Cc3ccccc3)nnc2s1,9.22
18,Cc1cc(C)c(NC(=O)C(C)Sc2nc3ccc(N4C(=O)c5ccccc5C4=O)cc3s2)c(C)c1 (centres undefined),-0.24
19,Cc1ccc(S(=O)(=O)N2CCN(c3ccc(C(=O)N4CCOCC4)cc3[N+](=O)[O-])CC2)cc1,1.87
20,CN(CC1CCOCC1)C(=O)c1ccc2nc(Cc3cccc(Cl)c3)oc2c1,1.2
21,Cc1cccc(-c2nnc(NC(=O)c3ccc(Cl)cc3)o2)c1,96.5
22,Cc1cc(C(=O)N2CCCC(C(=O)c3ccc(Cl)cc3C)C2)no1 (centres undefined),0.69
23,Cc1cccc(N2CCN(C(=O)COCc3cc(-c4ccc5c(c4)OCO5)on3)CC2)c1C,3.26
24,CNC(=O)c1c(NC(=O)c2ccc(N3C(=O)CCC3=O)cc2)sc2c1CCC(C)C2 (centres undefined),5.44
25,O=C(Nc1nnc(C2=COCCO2)o1)c1ccc([N+](=O)[O-])s1,82.3
26,CN1CCOc2ccc(S(=O)(=O)NCCc3ccc(Cl)cc3)cc21,-0.46

row,SMILES,inhibition [%]
1,Cc1cc(NC(=S)NC(=O)c2ccccc2)ccc1-c1cc2ccccc2oc1=O,-12.1
2,Cc1ccc(CN(C(=O)c2ccco2)C2CCS(=O)(=O)C2)cc1 (centres undefined),-3.45
3,Cc1ccc(NC(=O)[C@H](C)NC(=O)C2CCN(C(=O)[C@@H](NC(=O)OC(C)(C)C)C(C)C)CC2)cc1,2.15
4,COCCn1c(=O)[nH]c2cc(C(=O)NCc3ccccc3)ccc2c1=O,10.6
5,C=CCOc1ccccc1CN1CCC(Oc2ccc(C(=O)N3CCCCC3)cc2)CC1,5.09
6,COCCSc1nc2sc3c(c2c(=O)n1-c1ccccc1)CCN(C)C3,12.2
7,CCC(=O)Nc1nnc(SCC(=O)NCC2CCCO2)s1 (centres undefined),4.23
8,N#Cc1cccc(NC(=O)Cn2c3[n+](c4ccc(C(F)(F)F)cc42)CCCCC3)c1,2.1
9,COC(=O)Cc1nnc(SCC(=O)Nc2ccccc2)c2ccccc12,1.45
10,COC(=O)C1=C(O)/C(=C\c2ccc(OCC(=O)Nc3ccccc3)cc2)N=C1C,3.25
11,Cc1[nH]c(C)c(S(=O)(=O)N(C)Cc2ccccc2)c1C(=O)N1CCCCC1,0.1
12,CCCN(C(=O)C(C)Oc1cccc(Cl)c1)c1c(N)n(Cc2ccccc2)c(=O)[nH]c1=O (centres undefined),-0.12
13,O=S(=O)(/N=C(/Nc1ccccn1)c1ccccc1)c1ccc(Cl)cc1,1.86
14,CC(C)(C)C1CCc2onc(C(=O)NCc3ccc(F)cc3)c2C1 (centres undefined),-7.8
15,CCOCCCNC(=O)C1CCN(S(=O)(=O)c2c(C)noc2/C=C\c2ccc(OC)cc2)CC1,-4.74
16,CCCCCCOc1ccc(CN2CCN(C)CC2)cc1,-1.62
17,CCCCCn1c(S(=O)(=O)O)nc2ccccc21,-5.39
18,COC(=O)CCCCCC(CCC(=O)OC)NC(C)=O (centres undefined),-14.1
19,Cc1cccc(CNC(=O)c2ccc3nc(Cc4ccccc4F)oc3c2)n1,3.72
20,N#CC1=C2N=C(N)c3ccccc3N2C2=C(C(=O)CCC2)C1c1ccc(Cl)cc1 (centres undefined),74.3
21,Cc1ccc(S(=O)(=O)N2CCN(C(=O)COC(=O)c3ccc(C(C)(C)C)cc3)CC2)c(C)c1,39.2
22,Cc1cc(C(F)F)n2nc(C(=O)Nc3sc4c(c3C(N)=O)CCC4)nc2n1,37
23,CN(C)c1ccc(/C=N/NC(=O)c2cc(-c3ccc4c(c3)OCO4)n[nH]2)cc1,-5.04
24,CC(C)N1CCN(C(=O)c2ccc(OC3CCN(CCc4ccccc4)CC3)cc2)CC1,5.63
25,COCCNC(=O)c1ccc(CS(=O)(=O)c2ccc(OC)cc2)o1,0.24
26,COCCc1nn2c(=O)cc(COC(=O)c3cc(OC)c(OC)c(OC)c3)nc2s1,-4.46

row,SMILES,inhibition [%]
1,O=C(Nc1nc2ccccc2[nH]1)c1ccccc1F,21.4
2,COc1ccccc1N1CC(C(=O)Nc2nnc(SCC(=O)N3CCCC3)s2)CC1=O (centres undefined),-1.53
3,O=C(CNC(=O)c1ccccc1)NC1(C(=O)NC2CCCC2)CCCCC1,7.54
4,CCN(CCCNC(=O)c1cn(CC)c2ccc(S(=O)(=O)N(C)C)cc2c1=O)c1cccc(C)c1,-6.44
5,C=CCC1(CC=C)CCCN1C(=O)c1cc(COc2cncc(Cl)c2)on1,-3.16
6,CCCC(C)C(=O)Nc1nnc(C)s1 (centres undefined),-2.72
7,O=C(CCC(=O)N1CCCCCC1)Nc1ccc([N+](=O)[O-])cc1,7.06
8,CCc1cccc(OCCCCNCCCOC)c1,-16.6
9,CCc1nc(SCC(=O)Nc2ccc(F)cc2)c2c(=O)n(C)c(=O)n(C)c2n1,7.11
10,S=c1[nH]nc(COc2ccccc2)n1/N=C/c1ccccc1Br,5.69
11,CSc1nsc(SC)c1NC(=O)OCc1ccccc1,7.65
12,CC(C)(C)NCC1(CO)SC(N)=NC1=O (centres undefined),3.6
13,Cc1c(C)c2ccc(OCC(=O)NCCCN3CCCC3=O)cc2oc1=O,1.55
14,CSc1ccc(/C=C/C(=O)NC23CC4CC(CC(C4)C2)C3)cc1,53.3
15,CC(C)(C)c1cc(NC(=O)CCSc2nnc3ccccn23)cc(C(C)(C)C)c1,16.4
16,Cc1cc(NS(=O)(=O)c2ccc(NC(=O)C(C)Oc3cccc(C)c3C)cc2)nc(C)n1 (centres undefined),-3.75
17,CCc1noc(C)c1C(=O)OCC(=O)NC(=O)c1ccccc1,3.13
18,Cc1ccc(C)c(N2CCN(C3CCCC(C)C3)CC2)c1 (centres undefined),3.94
19,O=C(Nc1ccnn1C1CCN(C(=O)c2ccc(F)cc2)CC1)C1CCOC1 (centres undefined),1.78
20,Oc1ccc2nnc3c(Br)cnn3c2c1,-0.91
21,CN(Cc1nccs1)C(=O)c1ccc(OC2CCN(Cc3ccccn3)CC2)cc1,-2.34
22,Cc1nc2nc(-c3ccc(F)cc3)cn2nc1C,-3.44
23,COc1ccccc1OCC(=O)N1CCCC(Nc2cccc(F)c2)C1 (centres undefined),0.24
24,Cc1ccnc(NS(=O)(=O)c2ccc(NC(=O)C34CC5CC(CC(C5)C3)C4)cc2)n1,7.5
25,CC(C)(C)Nc1nc(Cl)nc(NC(C)(C)C)n1,3.43
26,COc1cccc(C2C(C(N)=O)=C(C)Nc3nc(CCCO)nn32)c1 (centres undefined),3.09
